In PubChem BioAssay AID504333 (National Center for Advancing Translational Sciences (NCATS), 2011):
Hit rate of the full screen: of about 360,000 compounds, about 16,000 (4.4%) were called active. Inconclusive means that the source gave no clear call. Such entries were picked first, then a sample of the others. The call rests on the fitted dose curve; in most records, active means well fitted inhibition curve with a large enough effect; inconclusive means small, poorly fitted or top-dose-only effect; inactive means no such curve, though single readings can be large or run the other way. Where the call is inconclusive, the potency comes from a doubtful curve fit.

target: Bromodomain adjacent to zinc finger domain protein 2B (Homo sapiens) (UniProt Q9UIF8); experiment: qHTS Assay for Inhibitors of BAZ2B; details: AlphaScreen BAZ2B-H3K14Ac peptide displacement; activity change, negative = inhibition: at 114 µM (top of the series) unless noted; further: nearly all actives have a fitted effect of over 60% in size
Summary of the method: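 Inhibition is scored as reduced AlphaScreen emission. The BAZ2B/b-H3(5-23)K14Ac complex (50 nM each) in PBS pH 7.4, 0.01% Tween-20 meets compound (up to 110 uM) for 30 min at RT before bead addition.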
On the % scale 0 is the no-effect control and ±100 the full control effect; potency means the concentration at half of the fitted maximal effect; tags describe the fitted curve by direction and shape.

Sequence of UniProt Q9UIF8 (Q9UIF8 whole entry, looked up, the tested form may be a part): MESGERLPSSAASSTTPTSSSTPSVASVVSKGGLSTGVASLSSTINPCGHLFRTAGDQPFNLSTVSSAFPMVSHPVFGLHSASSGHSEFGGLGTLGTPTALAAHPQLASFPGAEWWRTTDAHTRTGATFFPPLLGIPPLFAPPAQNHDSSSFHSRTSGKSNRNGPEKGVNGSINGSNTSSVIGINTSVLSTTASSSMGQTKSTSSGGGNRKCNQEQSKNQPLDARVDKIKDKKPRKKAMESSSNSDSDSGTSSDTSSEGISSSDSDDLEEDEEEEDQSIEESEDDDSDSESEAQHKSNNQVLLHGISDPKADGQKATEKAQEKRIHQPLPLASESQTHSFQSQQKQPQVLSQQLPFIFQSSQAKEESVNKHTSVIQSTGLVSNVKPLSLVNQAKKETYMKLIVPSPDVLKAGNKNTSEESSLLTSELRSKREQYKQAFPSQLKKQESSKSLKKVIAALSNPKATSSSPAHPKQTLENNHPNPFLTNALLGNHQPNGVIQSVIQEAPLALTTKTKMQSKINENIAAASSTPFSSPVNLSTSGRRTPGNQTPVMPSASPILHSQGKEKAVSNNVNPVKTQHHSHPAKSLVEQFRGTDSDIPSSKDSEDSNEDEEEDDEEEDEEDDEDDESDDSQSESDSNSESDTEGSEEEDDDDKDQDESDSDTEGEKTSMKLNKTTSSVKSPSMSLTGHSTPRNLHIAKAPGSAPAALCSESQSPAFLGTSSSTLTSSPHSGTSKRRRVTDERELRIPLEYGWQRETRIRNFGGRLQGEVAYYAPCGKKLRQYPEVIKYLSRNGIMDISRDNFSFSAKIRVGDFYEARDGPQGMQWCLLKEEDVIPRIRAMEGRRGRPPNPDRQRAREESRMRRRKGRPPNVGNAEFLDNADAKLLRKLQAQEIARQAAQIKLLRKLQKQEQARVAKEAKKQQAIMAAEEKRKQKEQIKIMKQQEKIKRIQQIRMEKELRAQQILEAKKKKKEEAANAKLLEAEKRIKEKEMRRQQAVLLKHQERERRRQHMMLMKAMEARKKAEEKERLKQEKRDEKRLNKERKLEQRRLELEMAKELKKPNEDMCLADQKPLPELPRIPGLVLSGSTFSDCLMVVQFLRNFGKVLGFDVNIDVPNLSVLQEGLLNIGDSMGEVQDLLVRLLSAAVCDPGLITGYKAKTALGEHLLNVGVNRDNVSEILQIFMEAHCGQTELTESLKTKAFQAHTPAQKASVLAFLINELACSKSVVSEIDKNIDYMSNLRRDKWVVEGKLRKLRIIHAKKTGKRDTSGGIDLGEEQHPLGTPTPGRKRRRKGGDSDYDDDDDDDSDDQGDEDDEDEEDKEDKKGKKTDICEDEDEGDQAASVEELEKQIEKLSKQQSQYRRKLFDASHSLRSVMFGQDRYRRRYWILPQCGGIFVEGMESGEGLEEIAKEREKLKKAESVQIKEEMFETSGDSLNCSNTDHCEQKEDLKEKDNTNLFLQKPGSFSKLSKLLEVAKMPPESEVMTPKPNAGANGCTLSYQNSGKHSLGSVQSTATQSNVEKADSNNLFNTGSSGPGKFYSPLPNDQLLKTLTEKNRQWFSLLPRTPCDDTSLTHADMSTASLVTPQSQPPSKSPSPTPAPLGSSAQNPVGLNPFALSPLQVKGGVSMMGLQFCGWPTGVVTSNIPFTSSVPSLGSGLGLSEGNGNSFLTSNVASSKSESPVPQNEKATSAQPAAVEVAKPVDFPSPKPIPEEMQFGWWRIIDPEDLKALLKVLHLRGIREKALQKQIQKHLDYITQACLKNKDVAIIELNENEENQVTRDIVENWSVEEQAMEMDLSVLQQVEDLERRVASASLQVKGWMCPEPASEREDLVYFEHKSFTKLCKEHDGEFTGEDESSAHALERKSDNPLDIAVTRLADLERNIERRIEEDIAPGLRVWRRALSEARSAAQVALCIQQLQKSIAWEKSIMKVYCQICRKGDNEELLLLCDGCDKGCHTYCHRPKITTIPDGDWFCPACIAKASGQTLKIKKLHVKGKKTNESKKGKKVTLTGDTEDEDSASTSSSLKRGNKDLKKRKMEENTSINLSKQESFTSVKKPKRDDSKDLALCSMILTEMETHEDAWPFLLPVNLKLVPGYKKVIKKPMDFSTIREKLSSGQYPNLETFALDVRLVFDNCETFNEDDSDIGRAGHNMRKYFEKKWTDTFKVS

Compound | activity change, negative = inhibition | Potency
O=C(/C=C/c1ccccc1)N1CCC(N2CCC(C(=O)N3CCOCC3)CC2)CC1 | inactive: 4.45% | 
COc1ccccc1/C=C/C=N/NC(=O)c1ccc(=O)n(C)c1 |  | inconclusive: 89.1 µM [inhibitor, single point]
O=c1oc2ccccc2nc1/C=C(O)/C=C\c1ccccc1 |  | inconclusive: 79.4 µM [inhibitor, single point]
S=c1[nH]nc(-c2ccc(Br)cc2)n1Cc1ccccc1 |  | inconclusive: 70.8 µM [inhibitor, single point]
COCCNC(=O)C(=O)NCC(c1cccnc1)N1CCN(c2ccccc2OC)CC1 (centres undefined) |  | inconclusive: 50.1 µM [inhibitor, partial curve]
Cc1ccc(NC(=O)COC(=O)CNC(=O)c2ccc3ccccc3c2)c([N+](=O)[O-])c1 | inactive: -33.6% | 
CC(C)(C)NC(=O)c1cnn(-c2ccccc2)c1C1CCN(C(=O)OC(C)(C)C)CC1 | inactive: 8.25% [at 57.1 µM] | 
O=C(NCc1ccccc1Cl)c1cc2c(s1)-c1ccccc1SC2 | inactive: 3.46% | 
CN(CC(=O)Nc1ccccc1Br)CC(=O)NC(c1ccccc1)c1ccccc1 |  | inconclusive: 0.708 µM [inhibitor, full curve, poor fit]
COC(=O)c1cc(C)nc2c1C(=O)C(=O)C=C2N1CCOCC1 |  | active: 50.1 µM
CCOc1ccccc1NC(=O)CSc1nnc(N)s1 | inactive: -6.44% | 
Cc1ccc(NC(=O)CSc2nnc(C)n3c2cc2sccc23)c(C)c1 |  | inconclusive: 89.1 µM [inhibitor, single point]
CCOc1ccc(Oc2ccccc2NC(=O)CCNC(C)=O)cc1 | inactive: -12.2% | 
Cc1ccc2c(ccc(=S)n2C)c1 |  | inconclusive: 79.4 µM [inhibitor, single point]
CCCCn1c(N)c(N(CCOC)C(=O)c2cc(-c3ccc(OC)cc3)nc3ccccc23)c(=O)[nH]c1=O | inactive: -2.08% | 
CC1CCN(S(=O)(=O)c2ccc(NC(=O)C3CSC4(C)CCC(=O)N34)cc2)CC1 (centres undefined) |  | inconclusive: 89.1 µM [inhibitor, single point]
c1ccc(-c2nc(N3CCOCC3)c3ccccc3n2)nc1 |  | inconclusive: 89.1 µM [inhibitor, single point]
Cc1ccc(N(CC(=O)NCC(C)c2ccccc2)S(=O)(=O)N(C)C)cc1 (centres undefined) | inactive: 3.62% | 
N#C/C(=C/c1ccc(C(=O)O)cc1)C(=O)Nc1ccccc1 | inactive: 6.55% | 
CC(=O)c1cccc(NC(=O)CSC(=O)c2ccccc2)c1 | inactive: 5.04% | 
Cc1ccccc1C(=O)Nc1nnc(SCc2cc(=O)n3ccccc3n2)s1 | inactive: 13% | 
O=[N+]([O-])c1cccc(C2Nc3cccc4cccc(c34)N2)c1 |  | active: 35.5 µM
COc1ccccc1CNC(=O)COc1cc(=O)n(C)c2ccccc12 | inactive: -7.3% | 
COC(=O)c1ccc(COc2ccc(/C=N/Nc3cccc(C(=O)O)c3)cc2)cc1 |  | inconclusive: 56.2 µM [inhibitor, partial curve]
O=C(O)CCCNc1ccc(S(=O)(=O)Nc2ccccc2C(=O)O)cc1C(=O)O |  | inconclusive: 79.4 µM [inhibitor, partial curve]

Compound | activity change, negative = inhibition | Potency
Cc1cc(C)c(OCCCn2ccnc2)c(C)c1 |  | inconclusive: 79.4 µM [inhibitor, single point]
CNC(=S)Nc1cc2oc3ccccc3c2cc1OC |  | inconclusive: 79.4 µM [inhibitor, partial curve]
CNc1cc([N+](=O)[O-])ccc1N/C=C/C(=O)c1cccs1 |  | active: 50.1 µM
Cc1cc(C(=O)CSc2n[nH]c(N)n2)c(C)n1-c1cccc(F)c1 |  | active: 50.1 µM
COCCn1c(NC(=S)NC(=O)C2CC2)cc(=O)[nH]c1=O |  | inconclusive: 89.1 µM [inhibitor, single point]
Cc1ccc(O)c(N=Nc2ccc(S(=O)(=O)N3CCCC3)cc2)c1 |  | active: 3.98 µM
COc1ccc(-n2c(Cc3cccn3C)nnc2SCC(=O)Nc2ccc3c(c2)OCCO3)cc1 |  | inconclusive: 79.4 µM [inhibitor, single point]
CCOc1cc2sc(N3CCC(C(=O)Nc4ccccc4Cl)CC3)nc2cc1Br | inactive: 3.59% | 
COCCNCCOc1ccccc1-c1ccccc1 |  | inconclusive: 70.8 µM [inhibitor, single point]
CCOc1ccc(-c2[nH]ncc2-c2ccccc2)c(O)c1 |  | inconclusive: 79.4 µM [inhibitor, single point]
O=C(CN1CCN(c2ccc(F)cc2)CC1)c1ccc(O)cc1O |  | inconclusive: 50.1 µM [inhibitor, partial curve]
COc1ccc(N=Cc2nc(-c3ccccc3)oc2OC(=O)c2ccccc2)cc1 | inactive: 9.16% | 
O=S(=O)(c1ccc(-c2csc(=Nc3ccccc3)n2CCCN2CCOCC2)cc1)N1CCOCC1 |  | active: 39.8 µM
C=CCNC(=O)CCCOc1cc(C)ccc1C | inactive: 28% | 
COc1cccc(CNC(=O)CSCc2cnn(-c3ccccc3)c2-n2cccc2)c1 |  | inconclusive: 89.1 µM [inhibitor, single point]
COC(=O)c1sc(-c2ccc(Cl)cc2)cc1NC(=O)COCC(=O)O |  | inconclusive: 89.1 µM [inhibitor, single point]
N#Cc1nc(COc2ccccc2)oc1N1CCC(Cc2ccccc2)CC1 |  | inconclusive: 25.1 µM [inhibitor, full curve]
CN(C)CCN=c1cc(-c2ccccc2)oc2ccc(Cl)cc12 |  | inconclusive: 79.4 µM [inhibitor, single point]
COc1ccc(C(=O)OCC(=O)NC2CCCCCC2)c(OC)c1 | inactive: -3.15% | 
CC(=O)c1ccc(NC(=S)NNC(=O)c2ccccc2[N+](=O)[O-])cc1 |  | active: 50.1 µM
Cc1ccccc1-c1nc(C(N)=O)c2c(n1)n(-c1ccc3c(c1)OCO3)c(=O)n2C |  | inconclusive: 70.8 µM [inhibitor, single point]
C=CCn1c(Oc2ccc(C=O)cc2OCC)nc2c1c(=O)n(C)c(=O)n2C | inactive: -10.7% | 
CN=c1scc(-c2ccccc2F)n1/N=C/c1ccc(O)c(O)c1O |  | active: 7.94 µM
C=CCNC(=O)CSc1nc2scc(-c3ccco3)c2c(=O)n1CC=C |  | inconclusive: 50.1 µM [inhibitor, partial curve]
CCOC(=O)c1c(C)oc2ncnc(NCCCN3CCN(c4cc(C)ccc4C)CC3)c12 |  | inconclusive: 25.1 µM [inhibitor, single point]

Compound | activity change, negative = inhibition | Potency
O=C(Oc1cc(=O)oc2ccccc12)c1ccco1 |  | inconclusive: 79.4 µM [inhibitor, single point]
Cn1c(=O)n(Cc2ccc(F)cc2)c(=O)c2c1nc1n2CCCN1Cc1ccccc1 |  | inconclusive: 31.6 µM [inhibitor, partial curve]
O=C(CCN1CCN(Cc2ccccc2)CC1)Nc1cccc(Br)c1 | inactive: -2.25% | 
Cc1cc(C)nc(OC(C(=O)O)C(OCCc2ccccc2)(c2ccccc2)c2ccccc2)n1 (centres undefined) | inactive: -14.8% | 
Cc1ccc(C2C3=C(CC(C)(C)CC3=O)Nc3onc(C)c32)cc1 (centres undefined) |  | inconclusive: 89.1 µM [inhibitor, single point]
COc1ccccc1CNC(=O)Nc1cccs1 |  | inconclusive: 89.1 µM [inhibitor, single point]
O=C1CCC/C1=C/Nc1ccc(Cl)cc1 | inactive: -3% | 
Cc1ccccc1NC(=O)CSc1nc(N)c(C#N)c(-c2cccs2)c1C#N |  | inconclusive: 1.41 µM [inhibitor, full curve, poor fit]
O=C(NCc1cccc(Br)c1)C1CCN(C(=O)c2sccc2-n2cccc2)CC1 |  | inconclusive: 50.1 µM [inhibitor, partial curve]
CC(C)n1cc(/C=N/Nc2ccc(Cl)c(C(=O)O)c2)c2ccccc21 |  | active: 44.7 µM
CC(C)(C)SCCNC(=O)CN(c1ccccc1)S(=O)(=O)c1ccc(F)cc1 | inactive: -1.25% | 
COc1ccc(OCC(O)CN2CCCC2)cc1 (centres undefined) |  | inconclusive: 89.1 µM [inhibitor, single point]
O=C(CCS(=O)(=O)c1ccc(Br)cc1)NCCc1ccccc1 |  | inconclusive: 50.1 µM [inhibitor, partial curve]
O=C(NN1C(=O)c2ccccc2NC1c1ccc([N+](=O)[O-])o1)c1ccc([N+](=O)[O-])cc1 (centres undefined) |  | inconclusive: 3.98 µM [inhibitor, full curve, poor fit]
CN(Cc1ccc2c(c1)OCO2)C(=O)c1cc(-c2ccccc2)c(N2CCOCC2)s1 |  | inconclusive: 25.1 µM [inhibitor, partial curve]
CCOC(=O)c1cc(CNC(=O)c2c(C)oc3c2CCCC3)c(C)o1 |  | inconclusive: 79.4 µM [inhibitor, partial curve]
CNC(=O)C1CCN(Cc2cc3ccccc3n2Cc2ccccc2C)CC1 |  | inconclusive: 39.8 µM [inhibitor, full curve, poor fit]
COC(=O)c1cccc(NC(=O)CSc2nc(O)c(-c3ccccc3)c(=O)[nH]2)c1 |  | inconclusive: 50.1 µM [inhibitor, partial curve]
C#CCOc1ccccc1C(N)=O | inactive: 1.29% | 
C#CCOCCOCCOCCNc1nc(N2CCN(C(=O)C(CCC(=O)O)n3cc(C(N)CC(C)C)nn3)CC2)nc(N2CCN(C(=O)C(Cc3cc4ccccc4[nH]3)n3cc(C(N)Cc4ccc(O)cc4)nn3)CC2)n1 (centres undefined) |  | active: 44.7 µM
Cc1cc(C)cc(NC(=O)COc2coc(CN3CCc4ccccc43)cc2=O)c1 |  | inconclusive: 50.1 µM [inhibitor, partial curve]
COc1ccc(-n2c(SCC(=O)N3CCCCC3C)nnc2-c2cccnc2)cc1 (centres undefined) | inactive: 15.9% | 
CCOC(=O)c1cnc2c(C)cccc2c1NCCc1ccc(OC)c(OC)c1 |  | inactive
Cc1ccc(N2CCN(CCc3nc4cc(NC(=O)c5ccco5)ccc4n3C)CC2)cc1 |  | inconclusive: 50.1 µM [inhibitor, partial curve]
